Among the data in paper PMC12136788 are binding signal values, retold here.

The list shows a part of the results.

T1: UNK ZnF1-3 (human, UniProt Q9C0B0 31-174)
T1 sequence: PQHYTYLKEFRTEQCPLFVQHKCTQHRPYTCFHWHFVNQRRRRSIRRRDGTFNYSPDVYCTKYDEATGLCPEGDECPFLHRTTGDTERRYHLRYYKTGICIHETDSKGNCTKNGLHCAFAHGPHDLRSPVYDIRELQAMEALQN

B1: 56284568_56285466_1299_CDS_ENSG00000011143_ENST00000393119|human|control|control (ssRNA)
RNA: GGGAGUUCUACAGUCCGACGAUCGGUGUGUGAGCCUGGAGUGGCAGGCAGCACCACAGCCCCAUAGCCUUCCACACGGUACCUCUGCCAGAAGUCCAGCGAGAGGACCUCACAGUAGAGCACAGGCCACUCCGGGAGUGCAUCCAACAGAGGAUUGAGCAUCA
B2: chr3:88113163:88113164:+_ENSMUSG00000001416_ENSMUST00000001452|mus_mus|FALSE|FALSE (ssRNA)
RNA: GGGAGUUCUACAGUCCGACGAUCCAGUGCAAUGUUGCAUGCCAAGGAGGACCACCGACUGAUGACUUUUGUAGUAAUAGAGCUAUUGAUGAUGCUCAACAUCAUCUCACGGUUAUUGACAUCAACAGGAGUACUGAUUUUCUUCAACAGAGGAUUGAGCAUCA
B3: chr5:32403282:32403283:-_ENSG00000056097_ENST00000265069|hu_mus|FALSE|FALSE (ssRNA)
RNA: GGGAGUUCUACAGUCCGACGAUCAGAUGUUUUCUUGGCAGCCAUAUUGGUAGGUAUCGCUGACACUUUAGUGUUGGAUGUACUAUUAAGAGACGAGUUUCCUGUAGUUGAAAGACCUUUCACUGAAGAAGUUGCAAUUGAUGACAACAGAGGAUUGAGCAUCA
B4: chr6:86333760:86333761:-_ENSG00000135316_ENST00000355238|hu_mus|hu_hu_hu_mus_True|18_98 (ssRNA)
RNA: GGGAGUUCUACAGUCCGACGAUCUUCCUCAAGAAUCUGUUCCUUGGUUUUACUCUUAGGAAUCGAGCCCACAAAAAGCCUAUUGUUGGCAACUGAGAUGCAGACACCAAUGUGCUUUCCAGAACGAAUUUCAUGAUUAUUAUACAACAGAGGAUUGAGCAUCA
B5: chr16:94690093:94690094:+_ENSMUSG00000040785_ENSMUST00000117648|mus_hu|mus_mus_mus_hu_True|8_78 (ssRNA)
RNA: GGGAGUUCUACAGUCCGACGAUCGGGCUGGGAUGACGGACACACAGCCUCGAUUCCGGUAAAAAAAAGUCUUAGUCGAUACUAAUUAAAAAGUGUUAAUGAUUUUUGAAAAUCAGAUUACAUCUAUUUGAAUCAUAAAGCAAACAACAGAGGAUUGAGCAUCA
B6: chr4:46174136:46174137:+_ENSMUSG00000028330_ENSMUST00000030014|mus_mus|FALSE|FALSE (ssRNA)
RNA: GGGAGUUCUACAGUCCGACGAUCAUCUUCCCAGCUCCAACGGAAUUGAAAAUUACUUAGAUGAUGAGAAAACCAAUUAAUAAACCUGUCAACACACGUGGUACUCAUCGUGUCCAGACGCAUGUACAGCAUCUCAGUCGCCUGCAACAGAGGAUUGAGCAUCA
B7: chr10:128108517:128108518:-_ENSMUSG00000049858_ENSMUST00000054764|mus_mus|FALSE|FALSE (ssRNA)
RNA: GGGAGUUCUACAGUCCGACGAUCAAACUUAUGCAAAUCAUCCAAGGACAGAGACAGUGACUGACCUCCAGGUGCCCCUACUACAUGUAAGCGAUAGGUGUGUGGGUCCAGGUUAGGUACAGGCAGAUGGUUACGGGUGAAGAACAACAGAGGAUUGAGCAUCA
B8: chr3:141904083:141904084:-_ENSMUSG00000028273_ENSMUST00000029941|mus_mus|FALSE|FALSE (ssRNA)
RNA: GGGAGUUCUACAGUCCGACGAUCGCUUCCAUUUUGCAAUGUGGUAUCACCCUUGCUGUUCAUUGAUCUCCCAGUUCAUUACUAUCUGCAUAUAAUAUAAAUUCACUAGACCAUAGAUUAGCAGCUUUCAGGACAGAUGCCUUGCAACAGAGGAUUGAGCAUCA
B9: chr2:235962676:235962677:+_ENSG00000130147_ENST00000392011|hu_hu|motif|central (ssRNA)
RNA: GGGAGUUCUACAGUCCGACGAUCCCCCCAUUCGUUAAAAAAGUGAUUUUAAAUUUAAAUUUAUACUUAACAAAUAGAAAGCGGUGUGAUUGGCAACGAGCUGCAGUAGGCAGUCCCUUCAGGCCUCUCCCUCGAUGGAGGAGGCAACAGAGGAUUGAGCAUCA
B10: chr4:133834700:133834701:-_ENSMUSG00000050890_ENSMUST00000105876|mus_hu|FALSE|FALSE (ssRNA)
RNA: GGGAGUUCUACAGUCCGACGAUCGUAAAAAUCUGUUCCACAUGCUGUGGAAAGGAAACACUUGUUUACACUGACAGGUUCUUCUGGGUUCUGCCCAGAGGCUGAACAAACUUUACUUAGACCAAAAUCAGCCACUUUGAGGGUCAACAGAGGAUUGAGCAUCA
B11: 48490846_48490966_941_3pUTR_ENSMUSG00000039347_ENSMUST00000040361|mouse|control|control (ssRNA)
RNA: GGGAGUUCUACAGUCCGACGAUCCACCUCCAGGAAUGUCACAUCUACAAGUGUCAGAGACUAAAUGGAUAUCAUUCACUUCAGAGCUGGAGGAGGCCUGUGACCCUGACCCAAUAUUUCAACACGGUGGAGACAGAGUUAAAACAACAGAGGAUUGAGCAUCA
B12: chr4:57314706:57314707:+_ENSG00000128050_ENST00000264221|hu_mus|hu_hu_hu_mus_True|1_88 (ssRNA)
RNA: GGGAGUUCUACAGUCCGACGAUCCAGAAUUUCAAAAAUAGCUUGUGUAGCAUGACUCAUGAUGUCCACUUCAGUCUGCCCUAUAACAAGGCCAGCAAAACAGAAUUUUGCAGCAAUGAGUUGCUCCUCAGACCACUGUGGGUCCAACAGAGGAUUGAGCAUCA
B13: 70762012_70763264_1072_3pUTR_ENSG00000145734_ENST00000358731|human|control|control (ssRNA)
RNA: GGGAGUUCUACAGUCCGACGAUCGUAGUUGUAGAACCGCGCUCAAAUAUGGGGUCAUUUUCUUCAACAACACAAGGGCCUUUUGUUCUUAAAACUUCUACAGUUAAACUUUCUUCAUCCAAAAUAAUGGAACCAUCUUCUGCCCAACAGAGGAUUGAGCAUCA
B14: chr12:48362563:48362564:+_ENSG00000134291_ENST00000256686|hu_hu|hu_hu_hu_mus_False|58_68 (ssRNA)
RNA: GGGAGUUCUACAGUCCGACGAUCUCCGUCAAGCCCUUCGAUAGACCCUUGCGGGGGAAACUGUAAUAAUUCUAACUUUCUAAAAAAAAGAAACGCCAAAAACUUUCCAAAAAGCGGGGGUGGGGUGAGGCGGGAGGGGGAGGUCAACAGAGGAUUGAGCAUCA
B15: 13613202_13613322_368_3pUTR_ENSMUSG00000042742_ENSMUST00000045235|mouse|control|control (ssRNA)
RNA: GGGAGUUCUACAGUCCGACGAUCUACAACACCAUUCAAUGCGACCUUCACCCUCACAAGUUUUUGCCCAGUGAUUAUCUGCCAGAUUUUUCAUUGCAACAGCAUAUUCGCAAAGUGUUUCCGCAUCUUCACAGUGUUCUCGCCCAACAGAGGAUUGAGCAUCA
B16: chrX:71549762:71549763:+_ENSMUSG00000019087_ENSMUST00000019231|mus_mus|mus_mus_mus_hu_False|58_98 (ssRNA)
RNA: GGGAGUUCUACAGUCCGACGAUCAAACCCGUGUACUCACUCUUAACAGCACAACAUCACCAGAAAACGAUAACGACAGCUAAGCUGGACAGACAGUUAAGUAGUACUUCCACACUCCCAAACUCAGGGAGCCCUAUAACCUUACAACAGAGGAUUGAGCAUCA
B17: 11925198_11928534_1590_CDS_ENSG00000134324_ENST00000256720|human|control|control (ssRNA)
RNA: GGGAGUUCUACAGUCCGACGAUCUGCUGUUGUCCAGUUAUAAUAUUUACUCCCAAUCUUUACCACGAGAUUGGGGUCAUCGAUAAUAGCGGGGUUGUCCACAAACUGUUGAUAUGACACAGCUUGCUCCAGGAAUGCAUCUUUCAACAGAGGAUUGAGCAUCA
B18: 46956734_46986804_428_5pUTR_ENSG00000141627_ENST00000269445|human|control|control (ssRNA)
RNA: GGGAGUUCUACAGUCCGACGAUCAUCGCCGAUUCUGCUGCUAUUCGAUCCCAUCUUCUAGCUUAAGCAGAUAAUUUGUCCUUAAACCUGCAUUUCCAAAAGACAACCUGUCUCAGCCGGCUGGGGGAUCUGCUCCAGCUCCACCAACAGAGGAUUGAGCAUCA
B19: 205581677_205581797_5572_3pUTR_ENSG00000158711_ENST00000357992|human|control|control (ssRNA)
RNA: GGGAGUUCUACAGUCCGACGAUCUGUUCAAAAAGGCUGGACACUCCUUUUCUGAACCACUGCUUCAGAGGUAUUGAGAAGUGGUACUGAGUGGCUCUAAAUGUGCUUACAUUCACCAAAAACAUAAAAGGACACCUUUAAGAACAACAGAGGAUUGAGCAUCA
B20: chr4:17845017:17845018:+_ENSG00000109805_ENST00000514176|hu_mus|hu_hu_hu_mus_False|8_68 (ssRNA)
RNA: GGGAGUUCUACAGUCCGACGAUCGCUCUCUUAACUUGUAUCUUCAUUAAGGAACUCUGCAAGGUUAGUUUACUUUUUCUGUAGCGCAGCUGUUUUGGCUCGUCUGGGUAAUCUCAUCUUCAUUUCUAUUCUGGUUCCAUGAUCCAACAGAGGAUUGAGCAUCA
B21: chr4:76721835:76721836:+_ENSG00000138768_ENST00000264904|hu_mus|hu_hu_hu_mus_True|48_68 (ssRNA)
RNA: GGGAGUUCUACAGUCCGACGAUCGUUUGGCUGGGGUUUCUGAGACGCUCUGGAAUAUAACUCAUGUUGCUAAUAAAAUCCUAGUUUUCUAUGAAAUUUCUCUUUGCCAAUCCUCUUCUCUAUUAGUUGCUUUAGUUUCUCUUUCAACAGAGGAUUGAGCAUCA
B22: chr5:77764768:77764769:+_ENSMUSG00000029250_ENSMUST00000031167|mus_hu|motif|central (ssRNA)
RNA: GGGAGUUCUACAGUCCGACGAUCGACACCAAGGAUCAUUGAGGGAUGAAUCUCACAGUGUGUAUAUGUGGAACAAUAAGCGGCUUCUUUCUCCUGUAAAUCAUCUGGAGUCAUUGCAAGCAUCACUGUUUCUUCUUCCAGGGUCAACAGAGGAUUGAGCAUCA

The target of the experiment is T1, UNK ZnF1-3. In words: nsRBNS (natural sequence RNA bind-n-seq); RBNS binding buffer (assumed for nsRBNS): 25 mM Tris pH 7.5, 150 mM KCl, 3 mM MgCl2, 0.01% Triton X-100, 500 ug/ml BSA, 20 U/ml SUPERase-In, 4 C; UNK is unkempt and MSI1 is Musashi-1; names of the RNAs are library labels; protein concentration not given here; high values mean tight binding.
Molecule B1 displayed a binding signal of 1.03 enrichment R.

The molecule B2 had a binding signal of 0.93 enrichment R.

With B3, the binding signal is 0.992 enrichment R.

Molecule B4 had a binding signal of 0.85 enrichment R.

In turn, B5 displayed a binding signal of 1.13 enrichment R.

Turning to B6, the binding signal amounted to 1.59 enrichment R.

On to B7, for which the binding signal is 1.6 enrichment R.

Molecule B8 had a binding signal of 1.07 enrichment R.

On to B9, for which the binding signal was 2.68 enrichment R.

B10 returned a binding signal of 0.813 enrichment R.

For B11, the binding signal came to 1.54 enrichment R.

As to B12, the binding signal was 0.909 enrichment R.

For B13, the binding signal is 1.24 enrichment R.

On to B14, for which the binding signal came to 2.32 enrichment R.

For B15, the binding signal is 1.03 enrichment R.

As for B16, the binding signal was found to be 1.44 enrichment R.

On to B17, for which the binding signal is 1.07 enrichment R.

For the molecule B18, the binding signal stood at 1.01 enrichment R.

Molecule B19 gave a binding signal of 2.11 enrichment R.

The molecule B20 came in with a binding signal of 0.392 enrichment R.

In the case of B21, the binding signal is 0.521 enrichment R.

In turn, B22 returned a binding signal of 1.45 enrichment R.
